The data set concerns the molecule itself. The data set can be described thus: cryo-EM structure.

B1: P22 F170A polyheads (nanotubes), helical assemblies of coat protein with the F170A substitution (complex)
chain: not shown
For the protein B1, the binding result was “binds”.

(Values after paper PMC3358469 (Biomaterials, 2012).)
